Source: PubChem BioAssay AID624296 (National Center for Advancing Translational Sciences (NCATS), 2012)
The whole screen tested about 350,000 compounds, of which about 9,900 (2.8%) were called active. Inconclusive means that the source gave no clear call. Such entries were picked first, then a sample of the others. Calls come from the whole dose curve; as a rule, active = well fitted activation curve with a large enough effect; inconclusive = small, poorly fitted or top-dose-only effect; inactive = no such curve, though single readings can be large or run the other way. Potencies of inconclusive entries are left out as doubtful fits.

Experiment: A quantitative high throughput screen for small molecules that induce DNA re-replication in MCF 10a normal breast cells. For activity, positive = re-replication: % of control where 0% means no effect. Note: nearly all actives have a fitted effect of over 50% in size.
Conditions: MCF 10A DNA re-replication, Hoechst nuclear intensity, 48 h; activity, positive = re-replication: at 46.1 µM (top of the series)
Potency is the fitted concentration of half-maximal effect; tags give direction and shape of the fitted curve.

SMILES | Potency | activity, positive = re-replication
CCOC(=O)CCc1c(C)c(C#N)c2[nH]c3ccccc3n2c1=O | inconclusive [activator, partial curve, poor fit] | –
CC1Sc2ccc(C(=O)NCc3ccccn3)cc2NC1=O (centres undefined) | inconclusive [activator, full curve, poor fit] | –
COc1cc(-c2noc(C3CCCN(C(=O)c4ccccc4)C3)n2)cc(OC)c1OC (centres undefined) | inconclusive [activator, single point] | –
CCNC(=S)NS(=O)(=O)c1ccccc1 | – | inactive: -3.85%
CC(C)C[C@@H](CNCC(=O)[C@H](CC(C)C)NC(=O)c1[nH]cnc1C(=O)N[C@@H](C)CN)NC(=O)c1nc[nH]c1C(=O)N[C@@H](CC(C)C)C(=O)O | – | inactive: -24.8%
Cc1nc2sc(C(c3ccccc3)N3CCN(c4ccccc4F)CC3)c(O)n2n1 (centres undefined) | inconclusive [activator, single point] | –
CN(C)/C=C\C(=C/C(=O)C(F)(F)F)Nc1ccccc1Oc1ccccc1 | inconclusive [activator, single point] | –
COCC(C)OC(=O)c1c(N)n(CCCN2CCOCC2)c2nc3ccccc3nc12 (centres undefined) | inconclusive [activator, single point] | –
Cc1cccc(NC(=O)c2nc[nH]c2C(=O)NCCCCNC(=O)c2[nH]cnc2C(=O)Nc2cccc(C)c2)c1 | inconclusive [activator, partial curve, poor fit] | –
Cc1cccc(C)c1NC(=O)CN(C)C(=O)c1ccc(-n2cncn2)c([N+](=O)[O-])c1 | – | inactive: 5.26%
COc1ccc(OC)c(C2C=C(c3ccc(C)c(C)c3)Nc3nnnn32)c1 (centres undefined) | inconclusive [activator, full curve] | –
C[C@@H]1CC[C@H]2C(=O)N3[C@@H](CC[C@@H](C)[C@@H]3c3ccc(Br)cc3)C(=O)N2[C@H]1c1ccc(Br)cc1 | inconclusive [activator, partial curve, poor fit] | –
O=C1CCCc2c1nc(-c1ccc([N+](=O)[O-])cc1)n2O | active: 23.1 µM | –
CCCCCNC(=O)c1cn(CC)c2cc(N3CCN(C)CC3)c(F)cc2c1=O | inconclusive [activator, partial curve] | –
Cc1ccc(C)c(C(=O)O/N=C(\N)c2ccc(Br)cc2)c1 | inconclusive [activator, single point] | –
CCOC(=O)N1CCN(C(=O)CN(c2cccc(C(F)(F)F)c2)S(=O)(=O)c2ccccc2)CC1 | inconclusive [activator, single point] | –
CC(C)(C)c1ccc(C(=O)NNc2cc(N3CCOCC3)nc(N3CCOCC3)n2)cc1 | inconclusive [activator, single point] | –
O=C(Nc1ccccc1Cl)Nc1cccc2cccnc12 | inconclusive [activator, single point] | –
COc1cccc2cc(-c3nnc(SCC(=O)Nc4nc(C)cs4)n3C)oc12 | inconclusive [activator, partial curve, poor fit] | –
CCS(=O)(=O)N1CCN=C1SCc1ccccc1 | – | inactive: -5.28%
CC(=O)c1c(C)[nH]c(C(=O)OCC(=O)NNC(=O)c2ccc([N+](=O)[O-])cc2)c1C | – | inactive: 10.4%
O=c1[nH]cnc2c1c(-c1ccccc1)cn2-c1ccccc1 | – | inactive: -2%
O=C(/C=C/NCc1cccnc1)c1ccc(Br)cc1 | inconclusive [activator, partial curve, poor fit] | –

SMILES | Potency | activity, positive = re-replication
CCn1c(-c2cc3ccccc3cc2O)n[nH]c1=S | – | inactive: 3.79%
Cc1cccc(NC(=O)c2cc(S(=O)(=O)N3CCc4ccccc43)cn2C)c1C | inconclusive [activator, single point] | –
COc1cccc2c(=O)c3c(cnn3C)n(C)c12 | inconclusive [activator, single point] | –
Cn1c(=O)c2c(nc(N/N=C/c3cccs3)n2Cc2ccc(Br)cc2)n(C)c1=O | inconclusive [activator, full curve, poor fit] | –
COc1ccc(C2C(C(C)=O)=C(O)C(=O)N2c2nccs2)cc1OC (centres undefined) | – | inactive: 6.18%
CCOC(=O)COc1ccc(S(=O)(=O)N2CCN(C(=O)OCC)CC2)cc1 | – | inactive: -6.45%
COc1ccc(C(=O)NC2CCCc3c2cnn3-c2ccc(C)c(C)c2)c(OC)c1OC (centres undefined) | inconclusive [activator, partial curve, poor fit] | –
CC(C)CCNC(=O)c1ccc2c(SCC(=O)O)c3c(nc2c1)CCCC3 | – | inactive: 3.42%
CC(Nc1cc(=O)n(C)c(=O)n1C)c1ccccc1 (centres undefined) | inconclusive [activator, single point] | –
CC(C)(C)c1ccc(-c2noc(-c3ccc4c(c3)CCO4)n2)cc1 | inconclusive [activator, full curve, poor fit] | –
C/C(=N\NC(=O)c1c[nH]c2ccccc12)c1ccco1 | active: 2.31 µM | –
Cc1ccc(SC(C)c2nc(-c3ccccc3)no2)cc1 (centres undefined) | inconclusive [activator, single point] | –
O=C(NCc1ccc2c(c1)OCO2)NC12CC3CC(CC(C3)C1)C2 | inconclusive [activator, full curve] | –
Cc1cccc2sc(NC(=O)c3cccc(S(=O)(=O)N4CCc5ccccc54)c3)nc12 | inconclusive [activator, full curve, poor fit] | –
O=C(c1cccc(S(=O)(=O)N2CCc3ccccc3C2)c1)N1CCN(c2ccccc2)CC1 | inconclusive [activator, single point] | –
CC(C)c1nnc(NC(=O)CCC(=O)NC2CCCCCCC2)s1 | inconclusive [activator, partial curve, poor fit] | –
Nc1cccc2c1C(=O)N(CCOc1ccc(F)cc1)C2=O | active: 16.4 µM | –
Cc1c(C(=O)N(Cc2ccccc2)C(C)C)oc2ccc(S(=O)(=O)N3CCOCC3)cc12 | – | inactive: 24.4%
Cc1cc(C(=O)N/N=C2\CC(=O)CC(C)(C)C2)c(C)n1-c1ccc(F)cc1 | – | inactive: 7.91%
CCN(CC)c1ccc2c(Cl)c(Br)c(=O)oc2c1 | inconclusive [activator, single point] | –
O=C(CSc1nnc(CNC(=O)C23CC4CC(CC(C4)C2)C3)n1-c1ccc(F)cc1)Nc1ccccc1 | – | inactive: 13.3%
COc1ccc(NC(=O)CN(C)S(=O)(=O)c2ccc(Cl)cc2)cn1 | – | inactive: -0.547%
CCc1ccccc1NC(=O)c1cnccn1 | – | inactive: -5.14%

SMILES | Potency | activity, positive = re-replication
O=C(Nc1ccc2c(c1)CCC2)C1CCN(c2c3c(nc4ncnn24)CCC3)CC1 | – | inactive: -3.26%
Cc1cc(C(=O)COC(=O)c2cccn2C)c(C)n1Cc1ccco1 | – | inactive: 13.2%
O=C(CCCOc1ccc(Cl)cc1Cl)NNC(=O)c1ccc(NC(=O)c2ccccc2)cc1 | – | inactive: 4.14%
O=C(Nc1ccccc1OC(F)F)c1cc2c(s1)CCC2 | inconclusive [activator, single point] | –
Cc1cc(N2CCCCC2)n2ncc(-c3ccccc3)c2n1 | inconclusive [activator, full curve, poor fit] | –
Cc1ccc(C(=O)OCC(=O)NC(=O)NCc2ccccc2)cc1C | active: 10.3 µM | –
Cc1ccc(-n2c(CCC(=O)O)ccc2-c2cccs2)cc1C | inconclusive [activator, partial curve, poor fit] | –
O=C(CSc1nc2c(sc3ccccc32)c(=O)n1-c1ccccc1)NCc1ccco1 | inconclusive [activator, partial curve, poor fit] | –
CCOc1ccc(-c2noc(CCCC(=O)NC3CCCC3)n2)cc1OC | – | inactive: -0.352%
Cc1ccc(/C=N/NC(=O)c2ccco2)s1 | – | inactive: 2.95%
COc1ccc(S(=O)(=O)NC2CCCC2)cc1NC(C)=O | – | inactive: 7.91%
COC(=S)Nc1cccc(C(F)(F)F)c1 | inconclusive [activator, full curve, poor fit] | –
CCn1nnc(-c2ccccc2NC(=O)c2ccc(-n3cnnn3)cc2)n1 | inconclusive [activator, partial curve, poor fit] | –
Cc1ccc(C(C)C)cc1OCC(=O)NCCCn1ccnc1 | active: 1.46 µM | –
CN1CCN(Cc2nc3ccccc3c(=O)n2Cc2nc(-c3ccccc3F)cs2)CC1 | – | inactive: 6.51%
CCn1c(-c2ccccc2Cl)nn(CC(=O)Nc2cc(Cl)ccc2Cl)c1=S | inconclusive [activator, partial curve] | –
FC(F)(F)c1cc(Oc2ccccc2)ncc1-c1nnc(-c2ccccc2Cl)o1 | inconclusive [activator, single point] | –
O=C(CCC(=O)Nc1ccc(Cl)cc1Cl)N/N=C/c1ccc([N+](=O)[O-])o1 | inconclusive [activator, partial curve, poor fit] | –
O=C(COC(=O)c1ccc2ncsc2c1)NCc1cccc(Cl)c1 | inconclusive [activator, partial curve, poor fit] | –
CCC(C)(C)NC(=O)C(c1ccc(C)o1)N(C(=O)c1csnn1)c1cccc(F)c1 (centres undefined) | – | inactive: 0.158%
Cc1ccnc(NC(c2ccccc2)c2ccc3cccnc3c2O)c1 (centres undefined) | inconclusive [activator, single point] | –
O=C(NCCCN1CCOCC1)c1onc(CSc2ccc(F)c(F)c2)c1C(=O)NCCCN1CCOCC1 | – | inactive: -26.8%
COc1ccccc1-c1nnc(Nc2nc3c(OC)cccc3s2)o1 | inconclusive [activator, full curve, poor fit] | –
